# Assay results as given in the supplement of paper PMC8728848.
# The list shows a part of the results.
# B1: PX9961J-bvu-499-24-499 (Bacteroides vulgatus) (protein)
# chain: LNTDPSTAVPSDDAIKNIDDAQVALNGIYRLASAHSYYGDNYLYYADCRGEDVQARINKGAGRRVSPYYFFDVTADDNFNITLVWNQPYKVIHQANSLIEKLDAGNAGNARPEEVARIKSEALAMRGLALFDLTRLFGMPYTLDNGASLGVPIEIQTTLEDHAPERNTVAQCYEQVLKDLNDALGGLTKEKHDAYMNYWSVKALLSRVYLYMNDNENALKCAEEVINDNGGIYRLFTHDEYPSVWGKDFNSESLFEFYFTMSEPSGGSGGEGAPMVYADNVKDWNNLILTKAYLDLLNEDPEDVRHVFPHLPENAVADTLPVAAKGQPKYLIKYPGKSGSVTDAVSTVNPQDNDLCILRLSEVYLNAAEAAFKIGNTEKALTYLNAIVTRANPAKSVTSADLSLERILKERRKELVGEGHAFFDYMRNGKSVDRSGGWHLTMPEDARVIAPSDPRVALPIPQTEIDANPNIVQNPR
# Legend:
# Assay in all cases: glycan array binding signal (z-score within array); higher = stronger binding
# Conditions in all cases: glycan notation: IUPAC condensed, linker removed
# [1] = target: Fuc(a1-2)[GalNAc(a1-3)]Gal(b1-3)GlcNAc(b1-6)GalNAc
# Method in brief: (§1)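 Glycan array data came from 3228 arrays in the Consortium for Functional Glycomics database, and only arrays with an available protein sequence were kept. Glycan names were put into IUPAC-condensed notation, and columns mapping to the same glycan were averaged. The binding signal is a within-array Z-score, averaged across arrays of one protein sequence run at different concentrations or buffers and across linkers. A negative Z-score can be read as non-binding.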
# [2] = target: Fuc(a1-2)[GalNAc(a1-3)]Gal(b1-4)Glc
# Method in brief: as §1
# [3] = target: Fuc(a1-2)[GalNAc(a1-3)]Gal(b1-4)GlcNAc
# Method in brief: as §1
# [4] = target: Fuc(a1-2)[GalNAc(a1-3)]Gal(b1-4)GlcNAc(b1-2)Man
# Method in brief: as §1
# [5] = target: Fuc(a1-2)[GalNAc(a1-3)]Gal(b1-4)GlcNAc(b1-2)Man(a1-3)[Fuc(a1-2)[GalNAc(a1-3)]Gal(b1-4)GlcNAc(b1-2)Man(a1-6)]Man(b1-4)GlcNAc(b1-4)GlcNAc
# Method in brief: as §1
# [6] = target: Fuc(a1-2)[GalNAc(a1-3)]Gal(b1-4)GlcNAc(b1-2)Man(a1-3)[Fuc(a1-2)[GalNAc(a1-3)]Gal(b1-4)GlcNAc(b1-2)Man(a1-6)]Man(b1-4)GlcNAc(b1-4)[Fuc(a1-6)]GlcNAc
# Method in brief: as §1
# [7] = target: Fuc(a1-2)[GalNAc(a1-3)]Gal(b1-4)GlcNAc(b1-3)Gal(b1-4)GlcNAc
# Method in brief: as §1
# [8] = target: Fuc(a1-2)[GalNAc(a1-3)]Gal(b1-4)GlcNAc(b1-3)Gal(b1-4)GlcNAc(b1-3)Gal(b1-4)GlcNAc
# Method in brief: as §1
# [9] = target: Fuc(a1-2)[GalNAc(a1-3)]Gal(b1-4)GlcNAc(b1-3)GalNAc
# Method in brief: as §1
# [10] = target: Fuc(a1-2)[GalNAc(a1-3)]Gal(b1-4)GlcNAc(b1-3)[Fuc(a1-2)[GalNAc(a1-3)]Gal(b1-4)GlcNAc(b1-6)]GalNAc
# Method in brief: as §1
# [11] = target: Fuc(a1-2)[GalNAc(a1-3)]Gal(b1-4)GlcNAc(b1-6)GalNAc
# Method in brief: as §1
# [12] = target: Fuc(a1-2)[GalNAc(a1-3)]Gal(b1-4)[Fuc(a1-3)]GlcNAc
# Method in brief: as §1
# [13] = target: Fuc(a1-2)[GalNAc(a1-3)]Gal(b1-4)[Fuc(a1-3)]GlcNAc(b1-3)GalNAc
# Method in brief: as §1
# [14] = target: Fuc(a1-2)[GalNAc(a1-4)]Gal(b1-4)GlcNAc
# Method in brief: as §1
# [15] = target: Fuc(a1-2)[GalNAc(b1-3)]Gal
# Method in brief: as §1
# Fuc(a1-3)GlcNAc = target: Fuc(a1-3)GlcNAc
# Method in brief: as §1
# [16] = target: Fuc(a1-3)[Gal(b1-4)]Glc6S
# Method in brief: as §1
# [17] = target: Fuc(a1-3)[Gal(b1-4)]GlcNAc
# Method in brief: as §1
# [18] = target: Fuc(a1-3)[Gal(b1-4)]GlcNAc(b1-2)Man
# Method in brief: as §1
# [19] = target: Fuc(a1-3)[Gal(b1-4)]GlcNAc(b1-2)Man(a1-3)[Fuc(a1-3)[Gal(b1-4)]GlcNAc(b1-2)Man(a1-6)]Man(b1-4)GlcNAc(b1-4)GlcNAc
# Method in brief: as §1
# [20] = target: Fuc(a1-3)[Gal(b1-4)]GlcNAc(b1-2)Man(a1-3)[Fuc(a1-3)[Gal(b1-4)]GlcNAc(b1-2)Man(a1-6)]Man(b1-4)GlcNAc(b1-4)[Fuc(a1-6)]GlcNAc
# Method in brief: as §1
# [21] = target: Fuc(a1-3)[Gal(b1-4)]GlcNAc(b1-3)Gal(b1-3)[Fuc(a1-4)]GlcNAc
# Method in brief: as §1
# [22] = target: Fuc(a1-3)[Gal(b1-4)]GlcNAc(b1-3)Gal(b1-4)[Fuc(a1-3)]GlcNAc
# Method in brief: as §1
# [23] = target: Fuc(a1-3)[Gal(b1-4)]GlcNAc(b1-3)Gal(b1-4)[Fuc(a1-3)]GlcNAc(b1-3)Gal(b1-4)[Fuc(a1-3)]GlcNAc
# Method in brief: as §1
# [24] = target: Fuc(a1-3)[Gal(b1-4)]GlcNAc(b1-3)GalNAc
# Method in brief: as §1
# [25] = target: Fuc(a1-3)[Gal(b1-4)]GlcNAc(b1-6)GalNAc
# Method in brief: as §1
# [26] = target: Fuc(a1-3)[Gal(b1-4)]GlcNAc(b1-6)[Gal(b1-3)GlcNAc(b1-3)]Gal(b1-4)Glc
# Method in brief: as §1
# [27] = target: Fuc(a1-3)[Gal(b1-4)]GlcNAc6S
# Method in brief: as §1
# [28] = target: Fuc(a1-3)[Gal3S(b1-4)]Glc
# Method in brief: as §1
# [29] = target: Fuc(a1-3)[Gal3S(b1-4)]GlcNAc
# Method in brief: as §1
# [30] = target: Fuc(a1-3)[Gal3S(b1-4)]GlcNAc6S
# Method in brief: as §1
# [31] = target: Fuc(a1-3)[GalNAc(b1-4)]GlcNAc
# Method in brief: as §1
# [32] = target: Fuc(a1-3)[GalNAc(b1-4)]GlcNAc6S
# Method in brief: as §1
# Fuc(a1-4)GlcNAc = target: Fuc(a1-4)GlcNAc
# Method in brief: as §1
# Fuc(b1-3)GlcNAc = target: Fuc(b1-3)GlcNAc
# Method in brief: as §1
# Gal(a1-2)Gal = target: Gal(a1-2)Gal
# Method in brief: as §1
# Gal(a1-3)Gal = target: Gal(a1-3)Gal
# Method in brief: as §1
binder,measurement,setting,value
B1,glycan array binding signal (z-score),[1],-0.337
same,glycan array binding signal (z-score),[2],-0.364
same,glycan array binding signal (z-score),[3],-0.716
same,glycan array binding signal (z-score),[4],-0.485
same,glycan array binding signal (z-score),[5],-0.039
same,glycan array binding signal (z-score),[6],-0.461
same,glycan array binding signal (z-score),[7],0.579
same,glycan array binding signal (z-score),[8],0.89
same,glycan array binding signal (z-score),[9],-0.225
same,glycan array binding signal (z-score),[10],-0.67
same,glycan array binding signal (z-score),[11],-0.634
same,glycan array binding signal (z-score),[12],-0.313
same,glycan array binding signal (z-score),[13],0.195
same,glycan array binding signal (z-score),[14],0.237
same,glycan array binding signal (z-score),[15],-0.157
same,glycan array binding signal (z-score),Fuc(a1-3)GlcNAc,-0.332
same,glycan array binding signal (z-score),[16],0.943
same,glycan array binding signal (z-score),[17],-0.358
same,glycan array binding signal (z-score),[18],-0.237
same,glycan array binding signal (z-score),[19],0.821
same,glycan array binding signal (z-score),[20],0.341
same,glycan array binding signal (z-score),[21],0.414
same,glycan array binding signal (z-score),[22],-0.672
same,glycan array binding signal (z-score),[23],-0.203
same,glycan array binding signal (z-score),[24],-0.549
same,glycan array binding signal (z-score),[25],-0.674
same,glycan array binding signal (z-score),[26],-0.373
same,glycan array binding signal (z-score),[27],-0.361
same,glycan array binding signal (z-score),[28],-0.464
same,glycan array binding signal (z-score),[29],1.55
same,glycan array binding signal (z-score),[30],0.486
same,glycan array binding signal (z-score),[31],0.261
same,glycan array binding signal (z-score),[32],0.049
same,glycan array binding signal (z-score),Fuc(a1-4)GlcNAc,0.155
same,glycan array binding signal (z-score),Fuc(b1-3)GlcNAc,0.396
same,glycan array binding signal (z-score),Gal(a1-2)Gal,-0.036
same,glycan array binding signal (z-score),Gal(a1-3)Gal,-0.096
